The record followed here is patent US7642367B2, “Diamino-functional chalcones” (Lica Pharmaceuticals A/S, priority 2002, dated 2010).

The test system of this assay is S. aureus ATCC29213. Briefly: Killing curve (time-kill) / broth macrodilution MIC. The class given is cell-based, Staphylococcus aureus.

Molecules are shown by their SMILES.

In the case of `COc1ccc(C(=O)/C=C/c2cc(-c3ccccc3OC)ccc2N2CCCN(C)CC2)c(F)c1` [B143, (E)-1-(2-Fluoro-4-methoxy-phenyl)-3-[2′-methoxy-4-(4-methyl-[1,4]diazepan-1-yl)-biphenyl-3-yl]-propenone], the “dependence of the bactericidal action” value is recorded as “primarily-dependent on the concentration of the test compound”.
